Assay results taken from the supplement of paper PMC11417369.
The other results are listed elsewhere or left out.

tested on: PfAP2-HC AP2 domain (GST-tagged); assay: gcPBM binding intensity (ln(normalized median fluorescence intensity)); higher = stronger DNA binding
Outline: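 Each value is the highest Masliner-normalised natural-log median intensity across replicate spots of either orientation of a probe. The probes were primer-extended double-stranded 36-bp intergenic genomic sequences on an Agilent 4 × 180k array, alongside negative controls, exposed for 1 h to GST-tagged P. falciparum DNA-binding domains expressed in E. coli. Bound protein was picked up with Alexa488 anti-GST antibody and scanned at 488 nm.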

| Sequence | gcPBM binding intensity (ln) |
| --- | --- |
| ATGTTAATTAATGAGGTGCATTGAATATTTCAATAA | 9.53 |
| CATCAATGCTAATTATGTACTTACATAAATAACCCT [XGTACX_site968] | 9.59 |
| ATACCTAAAAAATATACACACATATATATAAATATA [CACACA_site2580] | 10.1 |
| AATTAAATGTTTCTAAGATATACGACCAATGTATTT [CACACA_negctrl_site1694] | 9.4 |
| AATTAATGGGTACATACACACATATATACATACATA [CACACA_site742] | 9.87 |
| TATATATTACATAAAACACACAAAAAAAAAATTAAA [CACACA_site3882] | 9.99 |
| TTTATATTTTTTTTTGCACACTTTAAAAAAATATAT [CACACA_site1146] | 9.7 |
| GAATATTTATGATGAACTATTAATTAATTTTACATA [GTGCAC_negctrl_site353] | 9.41 |
| AAATAAATTGAAGATACATGCATATTTTTTTTTTAT [TGCATGCA_site686] | 9.65 |
| ATGTAGAGTAATAGTTGTACAAGGTGTATATCTCAT [XGTACX_site6370] | 10 |
| TGGTGAAAAATATAAATATAAATAAATATATATATA [CACACA_negctrl_site1725] | 9.56 |
| AGAAGAAAACAAAACACACACATATATCTTAATATA [CACACA_site2231] | 10.2 |
| AAAAAAAAAAACTTTGCATGTAATAATAAAAAAAAA [TGCATGCA_site81] | 9.41 |
| ATGATCTGTTTGTTTGTGCACATATATATATATTAA | 9.89 |
| AAAAAAAAAAACGACAGTACAATTATAATTTATATT [XGTACX_site2365] | 9.68 |
| AGAGTTAAACGATATATATAAATATATATATATATA [GTGCAC_negctrl_site316] | 9.7 |
| ATGTCTTAAAAATTAAAACACACGTTCACTTTCATA [CACACA_site3385] | 9.7 |
| AGATCATAATATTATACACACATTAGATATAGGTAA [CACACA_site6809] | 9.85 |
| TATCACCCACCATGAAGTACATATTACCATTTGATG [XGTACX_site845] | 9.79 |
| ATAAATAAATAAAAGCGTACATATATATAAAATATA [XGTACX_site8107] | 9.77 |
| AAAAGGAAGATATATACACACATACAAATATTTATA [CACACA_site7093] | 9.92 |
| TTATACTAAATGAACACACACACATATATATATATA [CACACA_site99] | 10.3 |
| AAATGTAATTTGTCTTTTATTTATATTTGACATGAT [TGCATGCA_negctrl_site520] | 9.48 |

| Sequence | gcPBM binding intensity (ln) |
| --- | --- |
| ATATTAATGATATATACACACATAAGTATTGTATAT [CACACA_site7844] | 9.82 |
| TTGATGGGAAAAAACTTTTTTTTCTTTTTTTCTTTC [CACACA_negctrl_site328] | 9.59 |
| AAAAATTATAAAAAACAAATATTAAATAATTATTAA [GTGCAC_negctrl_site125] | 9.3 |
| TTTTTTTTTTTTTTTTTTTTTTTGCTCAGTGTGGTA [CACACA_negctrl_site29] | 8.94 |
| TTCTATTCACATTTTACACACGTCCATCGCATTTTA [CACACA_site3453] | 10.3 |
| TTTTAAATTTAATTTACACACTTTTCATAGCATTGA [CACACA_site3794] | 9.61 |
| TATATATATGGTTTAACACACGAGATAAAAGTATAT [CACACA_site2867] | 9.93 |
| TTATATTTATAAAATTGTATACCCCTTCTAACTTTC [CACACA_negctrl_site250] | 9.5 |
| ATTGTGCTCATCAGCACACACAACATCATGTAATAA [CACACA_site1863] | 9.83 |
| TATATGGTATGTATTACACACATATCACATATAGAT [CACACA_site7426] | 9.77 |
| TATATATATATATAATGTACTTATATTTTTTTGAGG [XGTACX_site2638] | 9.48 |
| ATATGTATAAGTATGTATATTTATTTATACTTATGT [GTGCAC_negctrl_site221] | 9.73 |
| TTAATTAAAACGAATACACACATAAATATGTAAAAG [CACACA_site6707] | 9.86 |
| AAAAAAAAAAAAAAAAGTACATATATATATTTATAT [XGTACX_site5893] | 9.46 |
| TTCTTATTTAATGTATCACACACGAGAATAAAAAAT [CACACA_site8992] | 9.73 |
| ACATTTAATGTTATATGTACATAATATTATAAGTAT [XGTACX_site1393] | 9.75 |
| CATATGGCAATAATTACATGCAAAAAAAAAAAAAAA [TGCATGCA_site578] | 9.36 |
| AGCCATATCTTTTTTGCACACACTACAATAAAACAA [CACACA_site1650] | 9.84 |
| AATGTAAAAGTAAACACACACATATATTTATACATA [CACACA_site7218] | 10.7 |
| ACAGACGTTCAAAGGTGTACGCAAAATGAATAATAT [XGTACX_site7565] | 9.65 |
| GTAAATCGACACATACGTACATACATTTATATATAT [XGTACX_site3143] | 9.91 |
| AAAAAAAAGAAAAACACACACATATATATATATAAT [CACACA_site4707] | 10.2 |
